Test results reported in US11155596B2, “Polypeptide” (AFFIBODY AB, priority 2016, dated 2021).

How the values were obtained:
hB7-H3 = target: T1, hB7-H3 (Homo sapiens, UniProt Q5ZPR3); assay: Biacore specificity analysis of primary Z variants, hB7-H3; type: binding; settings: Z variant concentrations up to 50 nM
T1 construct: Fc (IgG Fc fusion partner); purchased R&D Systems 1027-B3-100
T1 sequence (Q5ZPR3 29-316 isoform Q5ZPR3-2 limits assumed): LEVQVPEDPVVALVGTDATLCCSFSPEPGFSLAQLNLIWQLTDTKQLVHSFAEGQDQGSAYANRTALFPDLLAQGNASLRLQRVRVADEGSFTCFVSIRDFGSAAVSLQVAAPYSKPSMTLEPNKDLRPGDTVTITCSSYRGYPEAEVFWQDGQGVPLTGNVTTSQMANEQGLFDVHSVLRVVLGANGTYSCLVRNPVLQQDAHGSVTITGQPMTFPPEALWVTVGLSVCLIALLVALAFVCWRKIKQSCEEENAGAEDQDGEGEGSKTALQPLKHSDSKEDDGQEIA
Method: Biacore kinetic and specificity analysis: Kinetic constants (ka and kd) and affinities (KD) for hPD-L1 were determined for 14 Hiss-tagged Z variants using a Biacore 2000 instrument (GE Healthcare). Some of the Z variants were also tested for binding against the sequence-related proteins hPD-L2, hB7-H3, hB7-H4 and mPD-L1 (mouse PD-L1 Fc Chimera, R&D Systems, cat. no. 1019-B7).
hPD-L1, hPD-L2, hB7-H3, hB7-H4 and mPD-L1 were immobilized in separate flow cells on the carboxylated dextran layer of different CM5 chip surfaces (GE Healthcare, cat. no. BR100012). The immobilization was performed using amine coupling chemistry according to the manufacturer's protocol and using HBS-EP as running buffer (0.01 M HEPES pH 7.4, 0.15 M NaCl, 3 mM EDTA, 0.005% v/v Surfactant P20, GE Healthcare, cat. no. BR100188). The ligand immobilization levels on the surfaces were 468-894 RU for hPD-L1, 537-742 RU for hPD-L2, 383 RU for hB7-H3, 538-659 RU for hB7-H4 and 482 RU for mPD-L1. One flow cell surface on each chip was activated and deactivated for use as blank during analyte injections. In the kinetic experiment, HBS-EP was used as running buffer and the flow rate was 50 μl/min. […] Kinetic constants were calculated from the sensorgrams using the Langmuir 1:1 model of BiaEvaluation software 4.1 (GE Healthcare).

RhPD-L1 = assay: Biacore kinetic analysis of maturated Z variants, RhPD-L1; type: binding, rhesus monkey
Method: hPD-L1, hPD-L2, hB7-H3, hB7-H4 and mPD-L1 were immobilized in separate flow cells on the carboxylated dextran layer of different CM5 chip surfaces (GE Healthcare, cat. no. BR100012). The immobilization was performed using amine coupling chemistry according to the manufacturer's protocol and using HBS-EP as running buffer (0.01 M HEPES pH 7.4, 0.15 M NaCl, 3 mM EDTA, 0.005% v/v Surfactant P20, GE Healthcare, cat. no. BR100188). […] One flow cell surface on each chip was activated and deactivated for use as blank during analyte injections. In the kinetic experiment, HBS-EP was used as running buffer and the flow rate was 50 μl/min. The analytes, i.e. the Z variants, were each diluted in HBS-EP buffer within a concentration range of 1000 to 0.01 nM and injected for 5 min, followed by dissociation in running buffer for 15-25 min. After dissociation, the surfaces were regenerated with one or two injections of 0.1% SDS. Kinetic constants were calculated from the sensorgrams using the Langmuir 1:1 model of BiaEvaluation software 4.1 (GE Healthcare).
Biacore kinetic and specificity analysis: Kinetic constants (ka and kd) and affinities (KD) for human PD-L1 and rhesus monkey PD-L1 (RhPD-L1; rhesus PD-L1/Fc Chimera, Sino Biological Inc., cat. no. 90251-C02H) were determined for 24 matured Hiss-tagged Z variants (specified in Example 6). The Z variants were also tested for binding against the sequence-related proteins hPD-L2, hB7-H3 and hB7-H4. The Biacore analyses were performed essentially as described in Example 3, however a flow rate of 30 μl/min was used. […] In a first binding kinetic analysis, the 24 Z variants were injected at concentrations of 5 and 50 nM over chips immobilized with hPD-L1 and RhPD-L1, respectively. […] In the specificity test, i.e. the binding analysis against hPD-L2, hB7-H3 and hB7-H4, the 24 Z variants were injected at a concentration of 500 nM.

SPR binding against hB7-H3 (hB7-H3) | pKd (RhPD-L1; His6-tagged Z variants at 135, 45, 15, 5 and 1.67 nM, read-out: RhPD-L1 KD) | Kd (RhPD-L1; ranking experiment, His6-tagged Z variants at 5 and 50 nM, 1:1 model, read-out: RhPD-L1 KD (M), approximate affinity constant) [M] | Substance
absence of SPR response | – | – | Z13156: primary PD-L1 binding Z variant (VDAKYAKERNQAAVEILQLPNLTAAQYWAFIWKLDDDPSQSSELLSEAKKLNDSQAPK; Engineered PD-L1 binding polypeptide)
absence of SPR response | 9.27 | 5.2e-09 | Z13091: primary PD-L1 binding Z variant (VDAKYAKERNNAAFEILRLPNLTNGQHWAFIWKLADDPSQSSELLSEAKKLNDSQAPK; Engineered PD-L1 binding polypeptide)

pKd: −log10 of the molar value. Where two headings read alike, the source gives them in different places.
